Test results published in PMC4336329 (PLoS ONE, 2015).
Screen size: about 310,000 compounds; about 2,200 (0.71%) showed an effect of 50% or more. The effect is printed as a negative number. Some of the results follow.

target: human ether-à-go-go-related gene (hERG) potassium channel (human, UniProt Q12809); experiment: primary screen, population patch clamp on CHO cells stably expressing hERG
Sequence (Q12809 whole entry, looked up): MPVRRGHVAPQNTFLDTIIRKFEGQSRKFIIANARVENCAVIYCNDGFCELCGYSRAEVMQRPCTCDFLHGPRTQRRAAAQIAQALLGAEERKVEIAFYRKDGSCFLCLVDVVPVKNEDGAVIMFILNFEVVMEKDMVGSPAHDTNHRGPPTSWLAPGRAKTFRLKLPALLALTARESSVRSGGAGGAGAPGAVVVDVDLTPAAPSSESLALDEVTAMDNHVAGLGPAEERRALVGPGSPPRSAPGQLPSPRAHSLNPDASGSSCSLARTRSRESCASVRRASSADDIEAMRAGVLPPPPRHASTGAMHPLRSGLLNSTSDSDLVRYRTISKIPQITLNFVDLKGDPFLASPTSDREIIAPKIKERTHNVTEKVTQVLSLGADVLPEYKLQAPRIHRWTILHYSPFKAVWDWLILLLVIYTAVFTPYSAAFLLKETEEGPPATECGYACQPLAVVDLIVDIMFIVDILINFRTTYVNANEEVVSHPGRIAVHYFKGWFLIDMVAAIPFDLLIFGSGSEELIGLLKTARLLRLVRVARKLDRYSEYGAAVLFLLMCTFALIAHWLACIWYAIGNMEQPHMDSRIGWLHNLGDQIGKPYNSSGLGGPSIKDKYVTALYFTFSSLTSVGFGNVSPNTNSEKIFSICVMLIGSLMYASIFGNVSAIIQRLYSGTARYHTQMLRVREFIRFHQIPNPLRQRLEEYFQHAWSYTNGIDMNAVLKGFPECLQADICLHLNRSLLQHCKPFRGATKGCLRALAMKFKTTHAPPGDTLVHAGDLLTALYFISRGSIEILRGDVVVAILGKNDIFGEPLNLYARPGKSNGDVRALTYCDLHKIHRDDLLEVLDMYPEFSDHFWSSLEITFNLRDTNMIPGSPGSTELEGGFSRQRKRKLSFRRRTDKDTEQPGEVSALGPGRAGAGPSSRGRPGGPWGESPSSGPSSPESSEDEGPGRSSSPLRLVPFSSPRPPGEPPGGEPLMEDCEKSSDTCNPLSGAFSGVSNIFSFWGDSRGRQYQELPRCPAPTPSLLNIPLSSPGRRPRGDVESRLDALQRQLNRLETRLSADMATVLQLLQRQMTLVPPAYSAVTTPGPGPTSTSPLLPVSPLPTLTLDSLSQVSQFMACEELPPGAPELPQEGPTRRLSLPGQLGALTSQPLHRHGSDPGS

| SMILES | hERG current change (%, negative = inhibition) at 1uM [%] |
| --- | --- |
| Nc1c(-c2ccccc2)sc2ccc3ccccc3[n+]12.O=S(=O)([O-])c1ccccc1 | -15.6 |
| Cc1nc2cc(N=NC3=C(O)CCCC3=O)ccc2s1 | 10.4 |
| O=C(Nc1nnc(C2CC2)s1)c1ccncc1 | 7.22 |
| COc1ccc(CC(C)Nc2cccc(SC)c2)cc1 (stereo not drawn) | 17 |
| Cc1cc(NCCCn2ccnc2)n2ncc(-c3ccccc3)c2n1 | -34.9 |
| COC(=O)C1=C(C)N(CCCC(=O)O)C(=O)NC1c1ccc(C#N)cc1 (stereo not drawn) | -0.0268 |
| N#C/C(=C\c1cccnc1)C(=O)Nc1ccc(O)cc1F | 8.13 |
| CCn1c(Cn2nnc(-c3ccccc3)n2)nnc1SCC(=O)Nc1ccccc1 | 0.98 |
| CCc1ccc(NC(=O)C2CC=CCC2C(=O)O)cc1 (stereo not drawn) | 7.12 |
| COC(=O)C1=C(c2ccc(F)cc2OCc2ccccc2)C[C@@H]2CC[C@H]1N2C(=O)NCCN1CCOCC1 | 13.3 |
| c1ccc(-n2nnnc2SCc2cccc(CSc3nnnn3-c3ccccc3)n2)cc1 | -3.56 |
| Cc1cc(C)c(S(=O)(=O)N2CCCOC2CNC(=O)C(=O)NCCCn2ccnc2)c(C)c1 (stereo not drawn) | 11.3 |
| COc1cc(=O)n(C)c2c(OCC(O)C(C)(C)O)cccc12 (stereo not drawn) | 16.6 |
| CCOC(=O)NC(=O)CN1C(=O)NC(C)(c2ccccc2)C1=O (stereo not drawn) | 8.01 |
| COc1ccc(C(=O)ON=C2c3ccccc3-c3ccccc32)cc1OC | 11.9 |
| CCCc1cc(=O)oc2cc(OCC(=O)Nc3ccc4c(c3)OCCO4)ccc12 | 9.35 |
| COc1ccc(/C=C/C(=O)Nc2nc(C)c(C(=O)N(C)C)s2)cc1 | 3.54 |
| CN(CCO)S(=O)(=O)c1ccc2c(c1)C(=NN)c1cc(S(=O)(=O)N(C)CCO)ccc1-2 | 11 |
| CCOC(CNC(=O)CCc1c(C)nc2ncnn2c1C)OCC | 8.89 |
| O=c1c(N2CCOCC2)nsn1Cc1ccccc1 | 5.46 |
| c1ccc2c(c1)CCN(c1ncnc3c1[nH]c1ccccc13)C2 | 18.4 |
| CCN(CC(=O)NCc1ccc(F)cc1)C(=O)CN1CCN(c2ccccc2OC)CC1 | -44.4 |
| O=C(CSc1nc2ccccc2nc1N1CCCC1)Nc1ccc(Cl)cc1 | 1.8 |
| Cc1c(OCC(=O)NCCCn2ccnc2)ccc2c3c(c(=O)oc12)CCCC3 | 2.79 |
| CCn1c(SCC(=O)c2ccccc2)nc2ccccc2c1=O | 10 |
| CC1CCCN(Cc2c(O)ccc3c2O/C(=C\c2ccco2)C3=O)C1 (stereo not drawn) | 6.46 |
| CCCCC[n+]1ccn(C2=C([O-])c3ccccc3C(=O)/C2=N\S(=O)(=O)c2ccc(Br)cc2)c1 | 3.66 |

| SMILES | hERG current change (%, negative = inhibition) at 1uM [%] |
| --- | --- |
| O=C(Nc1ccc(Cl)cc1)OCCn1nnnc1C(c1ccccc1Cl)N1CCOCC1 (stereo not drawn) | 4.94 |
| COc1ccc(CCNC(=O)COC(=O)COc2ccc(C#N)cc2)cc1 | 5.38 |
| CCN(CC(=O)NCc1ccc(Cl)cc1)C(=O)C1CCN(S(=O)(=O)c2ccc(OC)c(OC)c2)CC1 | 7.84 |
| Cc1c(NC(=O)CSc2n[nH]c(-c3ccccc3)n2)c(=O)n(-c2ccccc2)n1C | 6.56 |
| COc1ccc2cc3cc(C(=O)N4CCN(Cc5ccc6c(c5)OCO6)CC4)oc3nc2c1 | 0.263 |
| O=c1[nH]c(=O)n(CCc2ccc(F)cc2)c(O)c1C=NCCCn1ccnc1 | 8.39 |
| CC(=O)Nc1ccccc1NS(=O)(=O)c1cccc([N+](=O)[O-])c1 | 13.8 |
| Cc1ccc(-n2ncc(C(=O)NC3CC3)c2C2CCN(C(=O)OC(C)(C)C)CC2)cc1 | 7.14 |
| CCOc1ccccc1N(CC(=O)NC(C)(C)C)C(=O)Cn1nnc(-c2ccc(C)o2)n1 | -4.08 |
| CCOC(=O)CN1C(=O)N[C@@H](CCc2ccccc2)[C@@H](C(=O)OC)[C@H]1C | 12.6 |
| CN(C)C(=O)c1ccc(-c2n[nH]c(=O)c3ccccc23)cc1 | 8.14 |
| CCCCC(NC(=O)c1ccccc1)C(=O)OCC(=O)N1c2ccccc2Sc2ccccc21 (stereo not drawn) | 15.8 |
| O=C([O-])c1cc(-c2cccnc2)nc2ccc(Br)cc12.[K+] | 15.7 |
| O=C(O)CCC(=O)Nc1ccc(Br)cc1C(=O)c1ccc(Cl)cc1 | 8.95 |
| CC(Sc1ccccn1)C(=O)NC1CCCC1 (stereo not drawn) | 5.57 |
| O=C1CC(=O)N(c2ccccc2)C(=O)N1c1ccccc1 | 8.39 |
| Cn1c(O)c(C=Nc2ccc(Br)cc2)c(=O)n(C)c1=O | 12.4 |
| O=C(CCNS(=O)(=O)c1ccccc1)NNC(=O)C1COc2ccccc2O1 (stereo not drawn) | 17.8 |
| CC(NC(=O)Cn1cc(C(=O)C2CC2)c2ccccc21)c1ccccc1 (stereo not drawn) | 8.23 |
| Cc1nn(CC(=O)Nc2ccc(C(=O)N3CCCC3)cc2)c(=O)c2ccccc12 | 3.17 |
| O=C(CN1C(=O)NC2(CCCc3ccccc32)C1=O)NCc1ccc(Cl)cc1Cl (stereo not drawn) | -3.31 |
| O=C(CN1C(=O)S/C(=C\C=C\c2ccccc2)C1=O)Nc1ccc(C(=O)O)cc1 | 14.1 |
| CCOc1ccc(CNC(=O)C2CCCN(c3nnc(C)c4c(C)n(-c5ccccc5)nc34)C2)cc1 (stereo not drawn) | 8.87 |
| CC(C)CN1CCC(=O)N([C@H](COc2ccccc2)c2ccccc2)CC1 | -64.3 |
| C=CCn1c(=O)c2ccccc2n2c(SCC(=O)NCc3cccs3)nnc12 | 8.58 |
| COCc1ccc(C(=O)N(C)C2CCCN(Cc3ccccc3F)C2)o1 (stereo not drawn) | -1.22 |
| COc1ccc2ccccc2c1CN1CCN(Cc2ccccc2)CC1 | 5.42 |
